Results on 83 compounds are retold here after PubChem BioAssay AID1346428 (National Center for Advancing Translational Sciences (NCATS), 2018).

Hit rate of the full screen: of about 48,000 compounds, about 1,200 (2.5%) were called active. About 2% were inconclusive and are not listed.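 The calls were made as follows: active = activation of at least 60% and not above a set upper limit (about 1 call in 100 departs from these limits); inconclusive = activation of 40% to 60%, or above that upper limit; inactive = activation under 40%.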 The list shows a part of the results.

For this test, the target named is Probable G-protein coupled receptor 32 (Homo sapiens) (UniProt O75388). The experiment in a line: qHTS for Agonists of Human Resolvin D1 Receptor DRV1. Also: 0% is about no effect. The note with it: CHO-K1 GPR32 beta-arrestin PathHunter luminescence, 90 min; at 76.9 µM; active compounds read high; zero percent set by DMSO-only wells. In outline: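 Using DMSO wells as EC0, agonist-induced signal was taken as chemiluminescence from beta-Gal reconstituted upon beta-arrestin recruitment to GPR32 in CHO-K1 cells after 90 min compound treatment.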
Chain of UniProt O75388 (O75388 whole entry, looked up): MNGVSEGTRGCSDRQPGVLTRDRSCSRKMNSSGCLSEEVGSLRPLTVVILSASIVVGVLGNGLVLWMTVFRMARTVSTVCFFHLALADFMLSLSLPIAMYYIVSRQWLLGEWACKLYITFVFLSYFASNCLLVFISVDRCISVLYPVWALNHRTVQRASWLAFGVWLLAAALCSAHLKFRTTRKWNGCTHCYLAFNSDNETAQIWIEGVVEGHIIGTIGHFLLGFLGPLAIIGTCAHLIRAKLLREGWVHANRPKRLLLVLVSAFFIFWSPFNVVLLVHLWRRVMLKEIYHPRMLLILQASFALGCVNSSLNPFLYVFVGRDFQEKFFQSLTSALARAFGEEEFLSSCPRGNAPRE
For orientation: qHTS replaces the single test concentration by a dilution series.
Take `CC(=O)N1CCCc2cc(S(=O)(=O)N3CCCC(C(=O)N4CCN(c5ccccc5)CC4)C3)ccc21` (stereo not drawn): the activation was inactive: 16.5%.
Take `O=S(=O)(NCCc1csc2nc(-c3ccccc3)nn12)c1cc(F)ccc1F`: the activation is inactive: 12.4%.
Regarding `Cc1ccc(-c2ccc(=O)n(CC(=O)NCCc3ccccc3)n2)cc1`, the activation is inactive: -11.1%.
As for `COc1ccc2c(c1)cc1c(=O)n(CC(=O)NC(C)CCc3ccccc3)nc(C)n12` (stereo not drawn), the figure is inactive: -8.68%; as for `CCCSCCCNC(=O)C1CCN(c2nc3ccccc3nc2C(F)(F)F)CC1`, inactive: 0.748%; as for `CCCCn1cnc2cc(NCc3ccccc3Cl)ccc21`, inactive: -67.9%.
As for `COc1ccc(-c2[nH]c(-c3ccc(Cl)cc3)nc2SCC(=O)NCC2CCCO2)cc1` (stereo not drawn), the activation was inactive: -32.9%.
On to `Cc1cccc(/C=C/c2onc(C)c2S(=O)(=O)N2CCC(C(=O)N3CCCCC3)CC2)c1`, for which the activation was inactive: -18.3%.
In the case of `Cc1ccc(NC(=O)C(=O)NCC(c2cccnc2)N2CCN(Cc3ccccc3)CC2)cc1F` (stereo not drawn), the activation is inactive: 19%.
As for `Cc1ccc(-n2ncc3c(Nc4cccc(C(=O)O)c4)ncnc32)cc1`, the figure is inactive: -6.61%; as for `O=C(CCS(=O)(=O)c1cc(Br)cc2c1N(C(=O)C1CC1)CC2)N1CCN(c2cccc(Cl)c2)CC1`, inactive: -5.11%; as for `COc1ccc(-c2nc3ccccc3n3c(-c4cccc(C)c4)c4c(=O)n(C)c(=O)n(C)c4c23)cc1OC`, inactive: -8.54%.
For `CCC(C)NC(=O)c1c(C)oc2ncn(CC(C)C)c(=O)c12` (stereo not drawn), the activation was inactive: -6.76%.
Take `CCC(=O)N1CCc2cc(S(=O)(=O)NC(C(=O)NCCc3ccc(OC)c(OC)c3)C(C)C)ccc21` (stereo not drawn): the activation is inactive: -6.35%.
Take `Cc1cc(C)c(NC(=O)c2nc3ccccc3nc2N2CCCCC2)c(C)c1`: the activation is inactive: 4.08%.
`CCCCNC(=O)C1CCC(Cn2c(=O)c3sccc3n(Cc3ccccc3)c2=O)CC1` (stereo not drawn): the activation was inactive: -1.73%.
The same measure for `Nc1ccc(-c2ccc3ccccc3n2)cc1`: inactive: 10.2%; for `O=C(Cn1c(=O)n(CCc2ccccc2)c(=O)c2cccnc21)Nc1ccc(F)cc1`: inactive: -9.65%; for `CCOc1ccccc1OCC1CNCCO1` (stereo not drawn): inactive: -4.17%.
Take `COc1cc(NC(=O)C2CCN(C(=O)c3sc4nc[nH]c(=O)c4c3C)CC2)cc(OC)c1OC`: the activation is inactive: -10.5%.
With `Cc1cc(C(=O)N2CCN(c3ccccc3)CC2)c2c(C)nn(-c3cccc(F)c3)c2n1`, the activation is inactive: -11.2%.
Take `CCCCNC(=O)CSc1nc2cc3c(cc2c(=O)n1CCCC(=O)NCCc1ccc(OC)c(OC)c1)OCO3`: the activation is inactive: -10.9%.
As for `Cc1ccc(N2C(=O)c3n[nH]c(C)c3C2c2ccc(Cl)cc2)cc1` (stereo not drawn), the figure is inactive: 43.7%; as for `Cc1ccc(NC(=O)Cn2nc(C(F)(F)F)c3c2CCCC3)cc1C`, inactive: 15%.
As for `Cc1cc(C)cc(NC(=O)CSc2oc(-c3ccccc3)nc2S(=O)(=O)c2ccc(Cl)cc2)c1`, the figure is inactive: -10.6%; as for `CCOC(=O)c1ccccc1NC(=O)Cn1ncc2c1-c1ccccc1OC2`, inactive: -6.09%.
For `CCOC(=O)c1[nH]c2c(c1Cc1ccccc1OC)C(=O)CC(c1ccc(OC)cc1)C2` (stereo not drawn), the activation was inactive: -22.7%.
Regarding `Cc1ccccc1CSc1nnc2[nH]c(=O)cc(-c3ccccc3)n12`, the activation is inactive: -0.66%.
The same measure for `Cc1ccc(CNC(=O)c2nn(-c3ccc(Cl)cc3)nc2CO)cc1`: inactive: -5.65%; for `CCc1ccc(-n2c(=O)c3c4c(sc3n(Cc3cc(=O)n5c(C)cccc5n3)c2=O)CCC4)cc1`: inactive: -3.55%; for `CC(C)OCCCNC(=O)C(=O)Nc1c2c(nn1-c1ccccc1)CS(=O)(=O)C2`: inactive: -15.4%.
In the case of `Cc1ccc2c(c1)N(CC(=O)NCCc1ccccc1)C(=O)CO2`, the activation is inactive: 6.95%.
Turning to `CCSc1ncc(Cl)c(C(=O)Nc2nnc(CC)s2)n1`, the activation was inactive: 11%.
The same measure for `O=C(c1ccccc1F)N1c2ncnn2C2(CCCCC2)[C@@H]2CCCC[C@@H]21`: inactive: -6.1%; for `Cc1cccc(Nc2nc(N)nc(N)c2S(=O)(=O)c2ccccc2)c1`: inactive: 39%.
For `O=[N+]([O-])c1ccc2c(c1)S(=O)(=O)C=C2`, the activation is inactive: -6.24%.
The same measure for `Cc1c(C)n(Cc2ccc(F)cc2)c2ccc(C(=O)N3CCN(c4ccc(F)cc4)CC3)cc12`: inactive: -30.1%; for `CCC(C(=O)NCCc1ccccc1)n1nc(C)c2sc3ccccc3c2c1=O` (stereo not drawn): inactive: -27.5%; for `CCOc1ccc2oc(=O)cc(CN3CCN(C(=O)c4ccc(OC)c(OC)c4)CC3)c2c1`: inactive: -22.2%.
Turning to `O=C(C1CCN(c2ncnc3c2nc2n3CCCCC2)CC1)N1CCN(c2ccccc2F)CC1`, the activation is inactive: -5.23%.
With `CCCNS(=O)(=O)c1cc(-c2nn3c(C)nnc3c3ccccc23)ccc1C`, the activation was inactive: -13.5%.
The same measure for `Cc1ccc2oc(-c3ccc(Cl)c(NC(=O)Cc4ccccc4)c3)nc2c1`: inactive: 0.134%.
As for `COc1ccccc1CCNC(=O)Cc1ccc(NC(=O)N2CCSc3ncccc32)cc1`, the activation was inactive: -12.2%.
As for `COc1ccc(CNC(=O)c2cc3c(=O)n(Cc4cccnc4)ccc3nc2C)cc1`, the figure is inactive: -0.189%; as for `COc1ccccc1CNC(=O)c1cc2c(=O)oc3ccc(C)cc3c2s1`, inactive: -0.224%; as for `CC(=O)N1CCCc2cc(S(=O)(=O)N3CCCC(C(=O)NCc4ccccc4Cl)C3)ccc21` (stereo not drawn), inactive: 21.8%.
The same measure for `CCc1ccc(-c2nn(CC(=O)NC3CCCCC3)c3c2cnc2ccc(F)cc23)cc1`: inactive: -14.7%; for `CCOC(=O)c1ccccc1NC(=O)CN(c1cccc(C)c1C)S(=O)(=O)c1ccccc1`: inactive: 5.98%.
The same measure for `Cc1ccc(-n2c(=O)c3c4c(sc3n(Cc3cc(=O)n5cc(Cl)ccc5n3)c2=O)CCC4)cc1C`: inactive: -1.27%; for `CC(C)(C)c1ccc(OCc2nc3ccccc3n2CCOc2ccccc2)cc1`: inactive: -23.8%; for `Cc1cccc(C)c1OCc1nc2c3cnn(-c4ccccc4F)c3ncn2n1`: inactive: -14.2%.
For the compound `CC1CCc2c(cc(-c3ccccc3)n2-c2ccc(C(=O)NC(C)C)cc2)C1` (stereo not drawn), the activation was inactive: -34.3%.
As for `CCOc1ccccc1NC(=O)C1CCN(S(=O)(=O)c2ccc3[nH]c(=O)oc3c2)CC1`, the figure is inactive: 0.0686%.
As for `CCc1cccc(OCC(=O)Nc2ccc(S(=O)(=O)Nc3ncccn3)cc2)c1`, the figure is inactive: 23.3%; as for `Cc1cc(C)cc(NC(=O)Cc2csc(C)n2)c1`, inactive: -9.55%; as for `CC(=O)c1ccc(S(=O)(=O)N2CCn3cccc3C2c2ccccc2F)cc1` (stereo not drawn), inactive: -2.32%.
The same measure for `COc1cccc(NC(=O)CSc2nc3c([nH]c4ccccc43)c(=O)n2-c2cc(C)cc(C)c2)c1`: inactive: -26.9%; for `Cc1ccc(-c2nc(CS(=O)CC(=O)NCc3ccccc3Cl)c(C)o2)cc1` (stereo not drawn): inactive: -6.17%; for `CCOC(=O)Cc1ccc(NC(=O)N2CCSc3ccccc32)cc1`: inactive: -25.7%.
As for `COc1ccccc1NC(=O)CSC1=Nc2ccccc2C2=NC(CCC(=O)NCc3ccco3)C(=O)N12` (stereo not drawn), the activation was inactive: -7.85%.
In the case of `CCCN(CCC)CCCNC(=O)C1CCCN(Cc2nc(-c3ccc(Cl)cc3)oc2C)C1` (stereo not drawn), the activation was inactive: 0.0787%.
As for `COCCNC(=O)C1CCN(C(=O)c2cc3sccc3n2Cc2ccc(Cl)cc2)CC1`, the figure is inactive: 4.95%; as for `COc1ccc(C2(Nc3cccc(F)c3)C(=O)c3ccccc3C2=O)cc1`, inactive: -71.2%; as for `CC(C)COC(=O)OCN1C(=O)CN(CCN2CC(=O)N(COC(=O)OCC(C)C)C(=O)C2)CC1=O`, inactive: -5.87%.
As for `CCOc1ccc2nc(SCC(=O)Nc3ccc(F)cc3)nc(-c3ccccc3)c2c1`, the figure is inactive: -9.01%.
As for `O=c1ccc2cc(S(=O)(=O)Nc3ccc(F)c(Cl)c3)ccc2[nH]1`, the figure is inactive: 12.3%.
`Cn1nnc2c(NCc3ccc(Cl)cc3)ncnc21`: the activation was inactive: 0.632%.
As to `COc1cccc(CNC(=O)Cc2c(C)c3c(cc(C)c4c(C)c(C)oc43)oc2=O)c1`, the activation is inactive: -7.02%.
As for `O=S(=O)(c1ccc(Cl)cc1)c1nc(-c2cccs2)oc1SCc1ccc(F)cc1`, the figure is inactive: -26.3%; as for `O=C(Nc1nc2ccccc2n1CCN1CCOCC1)c1cccc([N+](=O)[O-])c1`, inactive: -5.79%.
The same measure for `CC1=C(C(=O)Nc2ccc(Cl)cc2)C(c2ccccc2F)n2nc(SCc3cccc(Cl)c3)nc2N1` (stereo not drawn): inactive: -17.3%.
As for `COc1ccc(OC)c(NC(=O)C2Cc3ccccc3CN2S(=O)(=O)c2ccc(F)cc2)c1` (stereo not drawn), the figure is inactive: -8.89%; as for `COc1ccc(NC(=O)Cn2c(=O)n(Cc3ccccc3OC)c(=O)c3cccnc32)cc1Cl`, inactive: -29.9%.
Turning to `Cc1ccc(Cn2c(=O)n(CCc3ccc(Cl)cc3)c(=O)c3ccccc32)cc1`, the activation was inactive: -9.42%.
The same measure for `CCc1ccc(CNC(=O)c2cc3n(n2)CCCN(Cc2ccccc2)C3=O)cc1`: inactive: 9.89%; for `CCCC(=O)Nc1cc2nn(-c3ccccc3)nc2cc1C`: inactive: 45%.
The same measure for `CCc1ccccc1NC(=O)Nc1c(C)n(C)n(-c2ccccc2)c1=O`: inactive: -12.6%; for `CCOC(=O)c1c(C)[nH]c(C)c1S(=O)(=O)N1CCC(C(=O)Nc2ccc(OCC)cc2)CC1`: inactive: 5.49%.
As for `CCCCn1cc(S(=O)(=O)c2cc(C)ccc2C)c(=O)c2cc(F)c(N3CCC(C)CC3)cc21`, the figure is inactive: -13.8%; as for `CC(C)OCCCNc1ncnc2sc3c(c12)CCCC3`, active: 104%.
As to `COc1ccc(C(=O)NCC(c2ccco2)S(=O)(=O)c2ccc(F)cc2)cc1` (stereo not drawn), the activation is inactive: -7.28%.
Take `CCc1cccc(NC(=O)CN(c2ccc(C)c(C)c2)S(=O)(=O)c2ccsc2C(=O)OC)c1`: the activation was inactive: -25.1%.
As for `Cc1ccc(C)c(N2CCN(C(=O)CN3C(=O)COc4ccc(S(=O)(=O)N5CCCC5)cc43)CC2)c1`, the figure is inactive: -1.89%.
